The whole screen tested about 50,000 compounds, of which about 800 (1.6%) showed an effect of 50% or more. The list shows a part of the results.

Data on 108 compounds can be found in PubChem BioAssay AID1240 (Sanford-Burnham Center for Chemical Genomics, 2008).

The target of this assay is Bcl-2-like protein 10 (Homo sapiens) (UniProt Q9HD36). Kind of assay: TR3 peptide-Bcl-B binding displacers, biochemical primary FP assay, phenotype converters (AID 1240).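 Note: 0% = Bcl-B with tracer peptide and DMSO and 100% = tracer peptide lacking Bcl-B.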 The following applies: GST-Bcl-B / FITC-TR3 peptide fluorescence polarization; stronger effect = higher value; compound at 3.75 mg/L.
Chain of UniProt Q9HD36 (Q9HD36 whole entry, looked up): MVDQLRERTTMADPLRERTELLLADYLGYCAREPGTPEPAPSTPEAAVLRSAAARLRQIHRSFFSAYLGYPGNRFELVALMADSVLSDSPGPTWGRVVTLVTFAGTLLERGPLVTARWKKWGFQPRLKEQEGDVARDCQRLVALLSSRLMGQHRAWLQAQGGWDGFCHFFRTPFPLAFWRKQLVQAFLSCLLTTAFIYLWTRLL
For `Cc1cccc(OCc2nc(-c3ccc([N+](=O)[O-])cc3)no2)c1`, the displacement is -3.8%. The result for `CCc1ccc(/C=C(/C#N)C(N)=O)s1` reads -0.3%; that for `O=S(=O)(c1ccc(F)cc1)n1cccc1`, -0.7%.

For `CC(=O)Nc1ccc(Cl)c(-c2nc3cc(Cl)ccc3o2)c1`, the displacement is -24.7%. In the case of `CC1=C/C(=N\N=C2\NC(=O)C(CC(=O)Nc3ccccc3F)S2)CC(C)(C)C1` (stereo not drawn), the displacement is -1.5%.

For the compound `COC(=O)c1c(NC(=O)c2ccccc2OC)sc2c1C(C(=O)OC)CC2` (stereo not drawn), the displacement is -24.8%. As for `COCCCNC(=O)/C(=C\c1ccc(N(C)C)cc1)NC(=O)c1ccc(C)cc1`, the displacement was determined as 7.3%.

With `COc1ccc(OC)c(N(CC(=O)Nc2ccc(C)cc2)S(C)(=O)=O)c1`, the displacement came to 6.5%. In the case of `CCOC(=O)c1c(NC(=O)c2ccc(Cl)s2)sc2c1CCC(C)C2` (stereo not drawn), the displacement was determined as 1.8%. With `C(=N\N1CCN(c2ccccn2)CC1)/c1cccs1` the figure was -0.3%; with `Cc1ccc2[nH]c3nc(N/N=C/c4ccc([N+](=O)[O-])cc4)nnc3c2c1`, 6%.

As for `Cc1cccc(C)c1NC(=O)/C=C/c1ccc2c(c1)OCO2`, the displacement amounted to 14.1%.

Turning to `O=C(NCc1ccco1)C(=O)Nc1ccccc1F`, the displacement was -17.9%. With `O=C(O)CCCN1C(=O)c2cccc3cccc(c23)C1=O` the figure was 1.4%; with `CC(C)C(NC(=O)OC(C)(C)C)C(=O)O` (stereo not drawn), -2.3%. With `Cc1ccc(N[C@@H]2O[C@H](CO)[C@@H](O)[C@H](O)[C@@H]2O)cc1` the figure was 11%; with `COc1ccc(C(=O)Nc2ccc3c(c2)Cc2ccccc2-3)cc1Br`, -4.6%; with `COc1ccc(-c2cc(C(=O)NC(C)C)c3ccccc3n2)cc1OC`, -7.2%. Regarding `CN1CCN(C(=O)c2cc3nc(-c4ccc(F)cc4)cc(C(F)(F)F)n3n2)CC1`, the displacement was found to be 0.3%. For the compound `COc1cc(/C=C2\SC(=S)N(NC(=O)c3ccc(O)c(OC)c3)C2=O)ccc1O`, the displacement was -7.3%.

`CCN(CC)c1ccc(NC(=O)c2oc3ccccc3c2C)cc1`: the displacement stood at 13.9%. The result for `COc1ccccc1CNC(=O)/C=C/c1ccc(Cl)cc1Cl` reads -2.4%. As to `C/C(=N\NC(=O)c1ccncc1)c1ccco1`, the displacement was -4.8%. For `CCOc1ccc2cc(/C=N/Nc3nc(-c4ccccc4)c4cc(Cl)ccc4n3)c(=O)[nH]c2c1`, the displacement came out at 4%. With `O=C1CSC(c2ccccc2F)N1Cc1ccccc1` (stereo not drawn) the figure was 1.9%; with `Oc1ccccc1/C=N/N=C/c1ccccc1O`, -5.2%. The result for `COC(=O)CN1C(c2cc(OC)c(OC)c(OC)c2)=Nc2ccc(Br)cc2C1c1ccccc1` (stereo not drawn) reads -10.1%; that for `COc1cc(/C=C2/SC(=S)N(CCC(=O)Nc3ccccc3C(=O)O)C2=O)cc(OC)c1OC`, 12.2%. With `CC(C)OC(=O)COc1ccc2c(c1)oc(=O)c1ccccc12` the figure was 10.1%. `COc1cc(NC(=O)c2ccc(Br)o2)ccc1NC(=O)c1ccco1`: the displacement amounted to 37.2%. With `Cc1ccc(NC(=O)/C(=C\c2cccnc2)NC(=O)c2ccc(C)cc2)cc1` the figure was 0.7%; with `Nc1nonc1-c1nc2ccccc2n1CC(=O)N/N=C\c1ccccc1OCC(=O)O`, -0.7%; with `Nc1c(C(=O)c2ccccc2)sc2nccc(NCc3ccccc3)c12`, 14.3%. With `O=[N+]([O-])c1ccc(Cc2ncccc2O)cc1` the figure was 2.7%; with `O=C1NC(=O)N(c2cccc(Cl)c2)C(=O)/C1=C/c1ccc(O)c(Cl)c1`, 2.3%. The result for `COc1cc(/C=C2\SC(N3CCC(C)CC3)=NC2=O)cc(OC)c1OC` reads -17%; that for `CCOc1ccc(NC(=O)c2c(O)c3ccccc3n(CC(C)C)c2=O)cc1`, 7.8%; that for `COc1ccc(/C=N/S(=O)(=O)c2cccs2)cc1OC`, 7.5%. `O=C(O/N=C1/CCCc2c1sc1nc3n(c(=O)c21)CCCCC3)c1ccc([N+](=O)[O-])cc1`: the displacement was 4.1%. With `COc1ccccc1N(CC(=O)Nc1ccc2ccccc2c1)S(=O)(=O)c1ccccc1` the figure was 6.6%. With `O=C(NN1CCOCC1)c1cc(-c2ccccc2)nc2ccccc12` the figure was 8.7%.

Take `COc1ccc2c(c1OC)C(=O)OC2Nc1cc(C)ccn1` (stereo not drawn): the displacement was 8.3%.

Turning to `O=C(NCc1ccccc1)c1ccc(S(=O)(=O)c2ccccc2)cc1`, the displacement is 29.8%.

Regarding `CC(C)NC(=O)c1nn2c(C(F)(F)F)c3c(nc2c1Cl)-c1ccccc1CC3`, the displacement was 10.5%.

In the case of `OC[C@H]1O[C@@H](Nc2cccc3ccccc23)[C@H](O)[C@@H](O)[C@H]1O`, the displacement was found to be 24.6%. The result for `CC(=O)c1cccc(NC(=O)c2cccc(S(=O)(=O)N3CCOCC3)c2)c1` reads -5.1%.

With `CCOc1ccc(C(=O)Nc2ccc(NC(=O)c3cccc(Cl)c3)cc2)cc1`, the displacement was 14.7%.

For `COc1cc(NC(=O)c2ccccc2C)c(OC)cc1NC(C)=O`, the displacement is -1.7%.

Consider `COc1ccc(NC(=O)c2cc(Cl)ccc2Cl)c(OC)c1`, for which the displacement was -2.8%.

Take `COC(=O)C1=C(C)N=c2s/c(=C\c3c(F)cccc3Cl)c(=O)n2C1c1ccccc1` (stereo not drawn): the displacement was found to be 8.5%.

Turning to `N#C/C(=C\c1ccc(-c2cc(Cl)ccc2Cl)o1)C(=O)Nc1sc2c(c1C(N)=O)CCCC2`, the displacement was -16.5%.

`CCOC(=O)C1=C(c2ccccc2)NC(=S)NC1c1cccc(OC)c1OC` (stereo not drawn): the displacement turned out to be 1.1%. With `CCOc1cc(OCC)cc(C(=O)Nc2ccc(Cl)cc2Cl)c1` the figure was 7.6%; with `CCOc1cc(/C=N/NC(=O)c2cccc(Cl)c2)ccc1OCCOCCOc1ccc(C)cc1`, 34.4%. For the compound `CCOC(=O)c1c(NC(C)=O)sc2c1CC(C)(CC)OC2` (stereo not drawn), the displacement is -4.6%. On to `CCOc1cccc(C2NC(=O)NC(C)=C2C(=O)OCC(Cl)(Cl)Cl)c1` (stereo not drawn), for which the displacement was -1.4%.

Consider `COc1ccccc1N(CC(=O)Nc1cc(Cl)cc(Cl)c1)S(=O)(=O)c1ccccc1`, for which the displacement worked out at 5.6%.

On to `O=C(COC(=O)c1ccc2c(c1)OCO2)c1cccc([N+](=O)[O-])c1`, for which the displacement is -11.5%. The result for `CCOc1ccc(C(=O)NCc2ccco2)cc1OCC` reads 7.8%; that for `O=C(NC(NCc1ccco1)C(Cl)(Cl)Cl)c1ccco1` (stereo not drawn), -1%.

`CCOc1ccc(C(=O)Nc2sc3c(c2C(N)=O)CCCC3)cc1`: the displacement is 39.8%.

As for `O=c1cc(-c2ccccc2)nc2cc(-c3cccc(Cl)c3)[nH]n12`, the displacement came to 4.9%. With `CCOC(=O)N1CCN(C(=O)/C(=C/c2ccc(OC)c(OC)c2)NC(=O)c2ccccc2)CC1` the figure was -4.6%; with `COc1ccc(/C=C/C(=O)O)cc1S(=O)(=O)Nc1ccc(C(=O)O)c(O)c1`, 5.3%; with `O=C1C=C(c2cccs2)CC(c2cccs2)C1n1cnc([N+](=O)[O-])c1` (stereo not drawn), 4.9%. For `Cc1ccc(/C(O)=C2\C(=O)C(=O)N(CCCC(=O)O)C2c2ccc3c(c2)OCO3)cc1` (stereo not drawn), the displacement was -7.5%. The result for `CCOc1ccc(C2Nc3ccccc3NC3=C2C(=O)CC(c2ccc(OC)cc2)C3)cc1OC` (stereo not drawn) reads -8.1%; that for `Cc1ccc(/C=C2/SC(=S)NC2=O)s1`, 10.6%; that for `CC1(C)CC(=O)C(=Cc2cn(-c3ccccc3)nc2-c2cccs2)C(=O)C1`, 5.4%.

`CCOC(=O)c1sc2ncn(/N=C/c3ccc(O)cc3)c(=O)c2c1C`: the displacement turned out to be 8.8%. With `CC(Oc1ccccc1)C(=O)Nc1cc(Cl)cc(Cl)c1` (stereo not drawn) the figure was 18.9%. The result for `Cc1ccc(NCC(=O)N/N=C\c2ccc(OCc3ccccc3)cc2)cc1` reads 6.5%. With `CC(=O)N(C)c1ccc(NC(=O)c2ccc([N+](=O)[O-])cc2)cc1` the figure was -10.8%; with `CC1CN(C(=O)C(C)N2C(=O)c3ccccc3C2=O)CC(C)O1` (stereo not drawn), -0.1%; with `Cn1cccc1/C=C(\C(=O)c1ccccc1)c1nc2ccccc2[nH]1`, 3.9%. `Nc1nnc(SCC(=O)c2ccc(-c3ccccc3)cc2)s1`: the displacement stood at 7.2%. Consider `O=C(Nc1ccc(F)cc1F)c1cnn2c1NC(c1ccco1)CC2C(F)(F)F` (stereo not drawn), for which the displacement is -0.6%. As to `COc1ccc([N+](=O)[O-])cc1N1C(=O)C=CC1=O`, the displacement is 10.3%.

Consider `Nc1ccc(O)c2c1C(=O)c1c(N)ccc(O)c1C2=O`, for which the displacement came to 4.2%. With `O=C1/C(=C\c2ccc(O)c([N+](=O)[O-])c2)SC(=S)N1c1ccccc1` the figure was 2.3%; with `COc1ccccc1/C=C/C(=O)c1ccc(Cl)cc1`, -7.7%. Turning to `COc1ccc(OC)c(NC(=O)CSc2nc3ccccc3o2)c1`, the displacement was -10.7%. As to `COc1ccc(-c2csc(/C(C#N)=C\c3c[nH]c4ccccc34)n2)cc1`, the displacement is -0.7%. With `CCCCNCCCCOc1ccccc1Cl` the figure was 20.5%.

As for `NCCCCNc1ccccc1[N+](=O)[O-]`, the displacement worked out at 16.1%. As to `O=C(O)c1cccc(-c2ccc(/C=C3\SC(=S)N(Cc4ccccc4)C3=O)o2)c1`, the displacement was -96.5%. With `Cc1cc(OCC(=O)NCc2ccc(Cl)cc2)ccc1Br` the figure was -4.5%; with `CCOC(=O)c1c(NC(=O)c2ccco2)sc2c1CCC(CC)C2` (stereo not drawn), 3.4%; with `COc1ccc(C(=O)Nc2ccccc2SC)cc1`, -4.4%.

Consider `CCOc1ccc2nc(SCC(=O)Nc3ccc([N+](=O)[O-])cc3)sc2c1`, for which the displacement amounted to 4.8%. Consider `Cc1c(Cl)c(=O)oc2cc(OCC(=O)c3ccc(Cl)cc3)ccc12`, for which the displacement was 0.4%.

As for `CCOc1ccc(/C=C2\SC(=S)N(CCC(=O)N3CCN(C)CC3)C2=O)cc1`, the displacement turned out to be 1.2%. On to `Cc1ccc(N(C(=O)c2ccc(Br)o2)C2C=CS(=O)(=O)C2)cc1` (stereo not drawn), for which the displacement came to 9%. As for `Cc1nc(N)sc1C(=O)N/N=C/c1ccc(Cl)cc1Cl`, the displacement was -1.3%.

Turning to `Cc1ccccc1N1C(=O)CSC1c1ccc([N+](=O)[O-])cc1` (stereo not drawn), the displacement stood at 5%.

On to `Cc1[nH]n(-c2ccccc2)c(=O)c1/C=N/c1nnc(-c2ccccc2)s1`, for which the displacement was -1.6%. The result for `Cc1ccc2nc3nc(C)cc(C)c3c(N)c2c1` reads 16.3%; that for `COc1ccc(-c2noc(-c3ccc(Cl)cc3Cl)n2)cc1`, 10.7%; that for `CCOC(=O)C1=C(O)/C(=C/c2cccs2)SC1=Nc1ccc(C)cc1`, 1.6%. On to `Cc1ccc(S(=O)(=O)NCCN2CCOCC2)cc1`, for which the displacement is -1.3%.

Consider `CCOC(=O)c1c(-n2c(C)cc(/C=C3\NC(=O)NC3=O)c2C)sc2c1CCCC2`, for which the displacement was 17.7%. For `COc1ccccc1/C=C(/NC(=O)c1ccc(C)cc1)C(=O)Nc1ccc(S(N)(=O)=O)cc1`, the displacement is -0.9%. With `O=C(c1c(Cl)ccc(F)c1F)N1CCN(c2ccc(Cl)cc2[N+](=O)[O-])CC1` the figure was 0.2%. On to `O=C(Oc1ccc(/C=c2/sc3nc4ccccc4n3c2=O)cc1)c1ccccc1[N+](=O)[O-]`, for which the displacement worked out at 19.8%. With `CCOC(=O)c1cccc(NC2C=CS(=O)(=O)C2)c1` (stereo not drawn) the figure was 11%; with `CN(C)c1nc(-c2ccccc2)cc(-c2ccccc2)n1`, -1.5%; with `O=S(=O)(c1ccc(Br)cc1Br)n1nnc2ccccc21`, 7.8%. As for `COc1ccc(C(=O)NNC2=C(C(=O)C(F)(F)F)CCC2)cc1`, the displacement is -14.7%.
